The campaign covered roughly 110,000 compounds. About 40 (0.04%) were called active. The shares of active, inactive and inconclusive entries below differ from those in the screen. The call rests on the fitted dose curve; in most records, active means well fitted curve in the direction sought with a large enough effect in the signal ratio (not every such curve was filed as active); inconclusive means small, poorly fitted or top-dose-only effect, or a change in a side signal; inactive means flat fitted curve, though single readings scatter; the % refers to the signal ratio. Where the call is inconclusive, the potency comes from a doubtful curve fit.
Test: IkB Signaling;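 on IkBa stabilization activation: 0% = basal untreated cells and 100% = reference inhibitor full response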
Settings: ABC-DLBCL IkBa-CBG/CBR dual luciferase ratio (green luciferase fused to IkBa over red control in OCI-Ly3 lymphoma cells), 4 h; IkBa stabilization activation: at 57.1 µM (top of the series), scaled: untreated 0%, proteasome inhibitor 100% unless noted
Method in brief: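 Curves were fitted separately to fusion (green), unfused (red) and ratio luminescence, then classed by r2, magnitude and activity. Cells: OCI-Ly3, 4 h compound plus doxycycline at 37C; 10 uM MG-132 defined full response.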
Potency means the concentration at half of the fitted maximal effect.

SMILES | IkBa stabilization activation | Potency
COc1cccc(C2CC(C(F)(F)F)n3ncc(C(=O)NCC4CCCO4)c3N2)c1 (centres undefined) | inactive: 0.417% | 
CCN1CCN(C(c2ccccc2Cl)c2c(O)cc(C)n(CCOC)c2=O)CC1 (centres undefined) | inconclusive: 1.54% [signal inhibitor] | 
Cc1nnc(NC(=O)c2ccc(S(=O)(=O)N(C)Cc3ccccc3)cc2)o1 |  | inconclusive: 6.31 µM [rising, single point]
CCCNC(=O)C1CCC(Cn2c(=O)c3sccc3n(CC(=O)NCc3cccc(OC)c3OC)c2=O)CC1 (centres undefined) | inactive: 4.4% | 
Cc1cc(SCC(=O)NC(=O)NCc2ccco2)nc2c(C)cccc12 |  | inconclusive: 25.1 µM [rising, partial curve]
Cc1ccc(C)c(N2CCN(CCCNC(=O)c3ccc4nc(CCc5ccccc5)oc4c3)CC2)c1 | inconclusive: 0.841% [signal inhibitor] | 
c1ccc(-c2ccc(OCCOCCn3cncn3)cc2)cc1 | inactive: 4.51% | 
COc1ccc(OC)c(NS(=O)(=O)c2ccc(N3CCCCS3(=O)=O)cc2)c1 | inconclusive: 0.407% [signal inhibitor] | 
COc1ccccc1CN1CCCC2(CCN(C(=O)c3ccncc3)CC2)C1 | inactive: 2.22% [at 11.4 µM, scaled: untreated 0%, proteasome inhibitor 100%] | 
Cc1ccc(C(=O)N/C(=C\c2ccc(Cl)cc2)C(=O)NC2CCCCC2)cc1 |  | inconclusive: 39.8 µM [signal inhibitor]
COc1ccc(C(=O)c2sc(Nc3ccccc3)nc2N)cc1 | inconclusive: -1.37% [signal inhibitor] | 
CC(=O)c1cccc(NC(=O)CN(c2cc(C)cc(C)c2)S(=O)(=O)c2c(C)noc2C)c1 | inconclusive: 1.11% [signal inhibitor] | 
N#Cc1c(C(F)(F)F)cc(-c2cccs2)nc1SCC(=O)Nc1cccc(Cl)c1 | inactive: 0.968% | 
Cc1cc(-n2ccnc(NCCc3ccc(S(N)(=O)=O)cc3)c2=O)ccc1Br | inconclusive: 5.38% [signal inhibitor] | 
COc1ccc(-c2onc(C)c2C)cc1S(=O)(=O)N(C)Cc1ccccc1 | inconclusive: 5.48% [signal inhibitor] | 
COc1ccc(NC(=O)c2ccco2)cc1NC(=O)c1cc(OC)c(OC)c(OC)c1 | inconclusive: 1.42% [signal inhibitor] | 
CC(C)CCn1c(/C=C/c2ccccc2)nc2ccccc21 | inconclusive: -0.778% [signal inhibitor] | 
Cc1ccc(-c2cn3ccc(C)cc3n2)cc1 |  | inconclusive: 10 µM [signal inhibitor, partial curve]
Cc1cc(C)cc(NC(=O)CSc2nc3nccnc3c(=O)n2CCc2c[nH]c3ccccc23)c1 |  | inconclusive: 1.58 µM [signal inhibitor]
COc1cccc2sc(N(C)c3ccccc3)nc12 | inactive: 2.06% | 
N#Cc1nc(COc2ccc(Cl)cc2)oc1NCc1ccc2c(c1)OCO2 | inconclusive: 9.53% [signal inhibitor] | 
CCOC(=O)Cn1c(=O)n(C2CCCCC2)c2nc(-c3c(F)cccc3Cl)nc(C(N)=O)c21 | inconclusive: 5.62% [signal inhibitor] | 
Nc1nc(Nc2ccccc2)nc2c1ncn2[C@@H]1O[C@@H](CO)[C@H](O)[C@@H]1O | inconclusive: -1.19% [signal activator] | 

SMILES | IkBa stabilization activation | Potency
Oc1c(C(c2ccco2)N2CCN(C(c3ccccc3)c3ccccc3)CC2)sc2ncnn12 (centres undefined) | inconclusive: 5.67% [signal activator] | 
Cc1cccc(NC(=O)Cn2c(=O)n(CCCCCC(=O)NCc3ccc4c(c3)OCO4)c(=O)c3sccc32)c1 | inconclusive: 10.1% [signal inhibitor] | 
CC(=O)N1C(=O)N(C)C2C1N(C(C)=O)C(=O)N2C (centres undefined) | inconclusive: -1.61% [signal activator] | 
COC(=O)c1scc(-c2ccc(C)cc2)c1S(=O)(=O)Nc1cc(C)ccc1OC | inconclusive: -2.91% [signal inhibitor] | 
Cc1ccc(NC(=O)c2cnc3sc(N4CCOCC4)nn3c2=O)cc1N(C)C | inactive: -1.67% | 
COc1ccccc1NC(=O)c1cc2ccccc2o/c1=N\O |  | inconclusive: 3.98 µM [rising, single point]
COC(=O)/C=C/S(=O)(=O)c1ccc(NC(C)=O)cc1 | inconclusive: 6.61% [signal inhibitor] | 
O=C(c1ccc2c(c1)N(Cc1ccccc1)C(=O)c1ccccc1S2(=O)=O)N1CCN(Cc2ccccc2)CC1 | inconclusive: 1.6% [signal inhibitor] | 
COc1cccc(-c2cnc(NCc3cc(Cl)ccc3O)n2C)c1 | inconclusive: 1.69% [signal inhibitor] | 
COc1ccc(Cn2c(=O)c3oc4ccccc4c3n(Cc3ccccc3)c2=O)cc1 | inconclusive: -0.25% [signal inhibitor] | 
Cc1ccccc1-n1nc(C)c2cc(C(=O)N3CCN(S(=O)(=O)c4ccc(F)cc4)CC3)sc21 | inactive: -1.5% | 
CC(C)Cn1nc(NS(=O)(=O)c2ccccc2)c2cc3ccccc3nc21 | inactive: -3.44% | 
CCOC(=O)c1[nH]c(C)c(CCC(=O)NCc2cccc(Cl)c2)c1C | inconclusive: 0.163% [signal inhibitor] | 
O=C(CSc1c2c(nc3ccccc13)CCC2)Nc1ccc(F)cc1F | inconclusive: 4.56% [signal inhibitor] | 
COc1ccccc1CCNC(=O)Cc1c(C)c2c(O)cc(C)cc2oc1=O | inconclusive: 2.51% [signal inhibitor] | 
COC(=O)c1ccc([C@@H]2Nc3c(cccc3C(F)(F)F)[C@@H]3C=CC[C@@H]32)cc1 | inconclusive: 4.78% [signal inhibitor] | 
O=C(O)[C@@H]1[C@H](C(=O)O)[C@H]2C(=O)C=C[C@H]1N2Cc1ccccc1 |  | active: 3.98 µM
COc1ccc(-c2noc(-c3ccccc3Cl)n2)cc1OC | inactive: 4.17% | 
CCOC(=O)c1cnn(-c2sc(C(=O)OCC)c(C)c2C(=O)OCC)c1N | inconclusive: 2.72% [signal inhibitor] | 
Cc1ccccc1CN1C(=O)c2ccccc2Sc2ccc(C(=O)N3CCOCC3)cc21 | inconclusive: 0.338% [signal inhibitor] | 
O=S1(=O)N[C@H]2CC[C@@H]3NS(=O)(=O)N[C@H]4CC[C@H](N1)N4S(=O)(=O)N23 | inactive: 0.342% [at 11.4 µM, scaled: untreated 0%, proteasome inhibitor 100%] | 
Cc1ccc(N2C(=O)SC(N(CC(=O)O)c3cccc(C)c3)C2=O)cc1 (centres undefined) | inconclusive: 11.7% [signal inhibitor] | 
Cc1cccc(-c2nc(-c3ccc4c(c3)[nH]c(=O)n4C)no2)c1 | inactive: -0.758% | 

SMILES | IkBa stabilization activation | Potency
O=C(Nc1ccc2nc(-c3cccnc3)[nH]c2c1)c1ccco1 | inactive: 4.28% | 
CCCN(CCC)CCCNC(=O)c1cc2c(-c3ccc(Cl)cc3)nn(C)c2s1 | inconclusive: -0.0808% [signal inhibitor] | 
Cc1cccc(NC(=O)CSc2nc3c(oc4ccccc43)c(=O)n2-c2ccccc2)c1C | inconclusive: 0.666% [signal inhibitor] | 
COc1ccccc1OCC(O)Cn1c(=N)n(Cc2ccccc2)c2ccccc21 (centres undefined) | inconclusive: -1.02% [signal inhibitor] | 
CC(C)CNC(=O)CN(C1CCCCC1)S(=O)(=O)c1ccccc1 | inactive: 1.13% | 
Cc1ccc(S(=O)(=O)N2CCC(C(=O)Nc3cc(C)ccc3C)CC2)cc1 | inconclusive: 11.5% [signal inhibitor] | 
Cc1ccc(C)c(OCCCC(=O)Nc2ccc(N3CCOCC3)cc2)c1 | inactive: 1.92% | 
O=C(CC(c1cccs1)N1Cc2ccccc2C1=O)Nc1ccccc1F (centres undefined) | inconclusive: -0.683% [signal inhibitor] | 
COC(=O)c1cc2occc2n1Cc1ccc(F)cc1Cl | inconclusive: 0.784% [signal inhibitor] | 
Cc1ccc(NC(=O)CN2C(=O)CSc3ccc(S(=O)(=O)N(C)C)cc32)cc1C | inactive: -0.429% | 
Cc1ccc(CSC2=Nc3ccccc3C3=NC(CCC(=O)NCCc4ccccc4)C(=O)N23)cc1 (centres undefined) | inconclusive: -0.18% [signal inhibitor] | 
COc1ccc(-c2nc(S(=O)(=O)c3ccc(Cl)cc3)c(N3CCCCCC3)o2)cc1 | inconclusive: 1.14% [signal inhibitor] | 
Cc1ccc(C(=O)NCCSc2c(C)[nH]c3ccccc23)cc1C | inconclusive: 1.57% [signal inhibitor] | 
CC(=O)N1c2ccccc2C(=O)C1N1CCN(c2cccc(C)c2C)CC1 (centres undefined) | inconclusive: -0.672% [signal inhibitor] | 
Cc1ccc(NC(=O)CSc2nc3c(c(=O)[nH]2)CN(Cc2ccccc2)CC3)cc1Cl | inconclusive: -0.305% [signal inhibitor] | 
COC(=O)c1c(NC(=O)C2c3ccccc3Oc3ccccc32)sc2c1CCC(C)C2 (centres undefined) | inconclusive: 15.6% [signal inhibitor] | 
Nc1nonc1-c1nc2ccccc2n1Cc1ccc(Br)cc1 | inactive: -0.459% | 
CC(CNC(=O)c1sc2ncccc2c1-n1cccc1)c1ccccc1 (centres undefined) | inconclusive: 0.666% [signal inhibitor] | 
CN1CC(=O)N(CC(=O)Nc2ccc(F)cc2)c2ccccc2C1=O |  | inconclusive: 25.1 µM [signal inhibitor, partial curve]
COc1ccc(C)cc1NC(=O)CSc1nc(=O)n(Cc2cccnc2)c2c1CCC2 |  | inconclusive: 6.31 µM [signal inhibitor]
CC(NC(=O)COC(=O)CCNC(=O)c1ccco1)C12CC3CC(CC(C3)C1)C2 (centres undefined) | inactive: -0.322% | 
COC(=O)c1ccccc1NC(=O)CSc1cc(-c2ccccc2)nc(C)n1 | inactive: 0.461% | 
O=C(C1CCCN(S(=O)(=O)c2cccc3nonc23)C1)N1CCN(c2ccccc2F)CC1 (centres undefined) | inconclusive: 9.11% [signal inhibitor] | 

— PubChem BioAssay AID445 (National Center for Advancing Translational Sciences (NCATS), 2006)
